# Test results as given in publication PMC6212790.
# The list shows a part of the results. At the low end of the ranking the order means little.
# Molecular target: T1, GST-Rok (full length) (UniProt O34857)
# T1 sequence: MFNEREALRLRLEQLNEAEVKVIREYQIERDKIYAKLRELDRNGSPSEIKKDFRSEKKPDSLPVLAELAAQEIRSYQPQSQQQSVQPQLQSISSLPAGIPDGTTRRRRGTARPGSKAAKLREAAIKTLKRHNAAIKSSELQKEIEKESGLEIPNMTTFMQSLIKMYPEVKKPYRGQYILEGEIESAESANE
# Assay: protein binding microarray;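 further: rank score from −0.5 (least bound) to 0.5 (best bound)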
# Details: Rok is a gene silencer of Bacillus subtilis; high values mean tight binding; most listed sequences are background and not binding sites; double strand, one strand shown
row,Sequence,binding signal [E-score]
1,AGAGCTAT,0.179
2,CTTAGTTA,0.18
3,GTTACTAA,0.283
4,AATCGTCA,-0.0499
5,GAATACCC,-0.185
6,CTTAATTC,0.139
7,TAGCATAA,0.229
8,GCTGATCA,-0.0531
9,CCGGAGAA,-0.186
10,GGAGACGA,-0.0426
11,AGGGGCCA,-0.323
12,AACACAAA,0.216
13,CGCTGACG,-0.282
14,AAGAGATA,0.185
15,ACGCTCCG,-0.254
16,CATCGAGG,-0.14
17,GACGAACA,0.0789
18,TATCTGGA,0.209
19,ATGCAGAG,-0.0627
20,AGTGGGTC,-0.185
21,GGCGAGAA,-0.0302
22,CCTTCTCG,-0.236

row,Sequence,binding signal [E-score]
1,CGGCAACC,-0.196
2,ACTTGTAT,0.236
3,GAACATCC,-0.0496
4,AAGGCATT,0.0267
5,AATGCTAA,0.214
6,CGTTGAGC,0.109
7,TAGCACGA,0.108
8,AATTTCGC,0.13
9,CAACAGTG,-0.00277
10,CCGTATAA,0.112
11,CTAAGTTA,0.228
12,CTTACTCC,-0.193
13,CCTAAGCA,0.00258
14,GATCAGTA,0.191
15,AGCCCCAG,-0.362
16,GAAGTACA,0.199
17,AGAAGGAA,-0.104
18,AAAGATCA,0.133
19,AGGGAACC,-0.203
20,CGTTTTGC,0.106
21,CATCGTAC,0.0424
22,AAACTTTG,0.117

row,Sequence,binding signal [E-score]
1,AATCTCTG,0.153
2,CTTTACGC,0.177
3,GACTTTGA,-0.118
4,CGCCAAGA,0.0245
5,CGTGTGAG,-0.0916
6,CAAGTAGC,0.119
7,AGACTATG,0.0447
8,ATGGGGCG,-0.197
9,AAACCCAG,0.0583
10,CGACACCG,-0.245
11,GATTATGA,-0.00173
12,AGTAGTAA,0.384
13,CCCGCACC,-0.123
14,CGCCTGTC,-0.179
15,TGAAGAAA,-0.102
16,ATTTATGA,0.197
17,GTCGCGCA,-0.0438
18,GCTACTGA,0.168
19,GACCTGAC,-0.16
20,AAACTGTC,-0.0352
21,AACAGAAT,0.0286
22,ATTTGTTC,0.232

row,Sequence,binding signal [E-score]
1,TTAGAAAA,0.185
2,CCCCACGG,-0.496
3,ACAACCAA,0.225
4,CCGAGCAC,-0.203
5,CTATAGTC,0.096
6,CGCTCTTC,-0.279
7,GGCACACA,-0.24
8,AGCCGGAG,-0.328
9,TATCCAAA,0.0834
10,ATTGGAGG,-0.0695
11,ACTAAGGA,0.193
12,AGTTCGCA,0.0432
13,ACTGATGC,-0.0827
14,TATAGCGA,0.178
15,CTAACTAG,0.276
16,AAATGGCC,0.0934
17,ACCGGCAT,-0.0275
18,CACCTCTG,-0.00886
19,AATTATAA,0.361
20,ATTACGTA,0.38
21,AATGCTAG,0.163
22,AACTTAAT,0.218

row,Sequence,binding signal [E-score]
1,CGCGGCAG,-0.24
2,GCAACGTA,0.151
3,AAGCCTTC,-0.293
4,AGGCTGGC,-0.454
5,CAAGATCC,-0.155
6,CCTAGTAA,0.256
7,ACACAGCA,0.0417
8,GTAAGATA,0.233
9,ACCTAAGA,0.015
10,GGTTGTTA,0.0141
11,ACATGACT,0.13
12,CATGATCA,0.0282
13,AGCCGGTC,-0.186
14,GCACACTA,0.109
15,ACACGAGC,-0.0679
16,CGGACGCA,-0.0715
17,ACCTCCAT,0.0858
18,GCTCTGAA,-0.165
19,CGCATAGC,-0.117
20,CATAGTAA,0.271
21,AGGTGCCG,-0.147
22,AGTGGACC,-0.0716
